{"source": "PubChem BioAssay AID485344", "about": "(National Center for Advancing Translational Sciences (NCATS), 2010)", "note": "Screen size: about 340,000 compounds; about 6,900 (2%) were called active. Cut-off read from the data, not from the text of the source: active = inhibition above about 30%; inactive = below that, where a call was filed. The list shows a part of the results, in another mix than the full data. Where no call is shown, the source filed none.", "data": [{"target": "D(2) dopamine receptor (Homo sapiens) (UniProt P14416)", "sequence (P14416 whole entry, looked up)": "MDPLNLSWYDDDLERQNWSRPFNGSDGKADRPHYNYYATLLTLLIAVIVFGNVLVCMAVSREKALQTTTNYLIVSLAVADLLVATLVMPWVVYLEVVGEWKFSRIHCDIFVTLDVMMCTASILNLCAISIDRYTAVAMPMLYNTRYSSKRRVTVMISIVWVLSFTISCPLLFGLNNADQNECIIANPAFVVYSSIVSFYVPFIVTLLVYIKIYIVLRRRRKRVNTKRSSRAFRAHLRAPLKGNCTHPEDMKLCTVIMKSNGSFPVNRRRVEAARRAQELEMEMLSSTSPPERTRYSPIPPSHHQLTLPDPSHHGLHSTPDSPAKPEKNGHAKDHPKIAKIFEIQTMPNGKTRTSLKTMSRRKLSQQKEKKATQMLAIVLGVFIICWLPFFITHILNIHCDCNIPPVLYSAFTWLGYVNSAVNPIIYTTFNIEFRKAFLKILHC", "assay": "HTS Assay for Allosteric Antagonists of the Human D2 Dopamine Receptor: Primary Screen for Antagonists; note: 0% is about no effect", "conditions": "HEK293 TREx D2 cells, calcium flux, dopamine EC80; at 10 µM; stronger effect = higher value", "outline": "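Antagonism is scored as inhibition of an EC80 dopamine-evoked calcium signal in a force-coupled, tetracycline-inducible HEK293 T-REx D2 line, with compound present 180 s before agonist.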", "values": [{"smiles": "CCc1cccc(C)c1NC(=O)c1cc(S(=O)(=O)N2CCC3(CC2)OCCO3)ccc1F", "inhibition": "-11.9%"}, {"smiles": "Cc1oc(-c2ccc(Cl)cc2)nc1CN1CCCC(C(=O)NCCc2ccccc2)C1", "note": "(stereo unspecified)", "inhibition": "4.98%"}, {"smiles": "CC(=O)c1ccc(NC(=O)CSc2c(C(C)C)cnc3c2c(=O)n(C)c(=O)n3C)cc1", "inhibition": "-4.83%"}, {"smiles": "Cc1ccc(S(=O)(=O)N2CCCc3cc(NS(=O)(=O)c4ccc(C)c(C)c4)ccc32)cc1", "inhibition": "7.84%"}, {"smiles": "Cc1ccc2oc(-c3cccc(NC(=O)c4ccc(N5CCC(C)CC5)c([N+](=O)[O-])c4)c3)nc2c1", "inhibition": "7.5%"}, {"smiles": "COc1ccc(Nc2nc(Nc3ccc(OC)cc3OC)nc(N3CCOCC3)n2)c(OC)c1", "inhibition": "16%"}, {"smiles": "Nc1nnc(SCC(=O)Nc2cc(C(F)(F)F)ccc2N2CCOCC2)s1", "inhibition": "active: 86.8%"}, {"smiles": "CCOc1ccc(C(=O)Nc2ccc(-c3nnc4n3CCCCC4)cc2)cc1OCC", "inhibition": "-11.2%"}, {"smiles": "Cc1ccccc1CC(=O)NC1CCN(Cc2ccccc2)CC1", "inhibition": "active: 56.1%"}, {"smiles": "Cc1cccc2c(=O)cc(CSCC(=O)Nc3ccc(Cl)cc3)[nH]c12", "inhibition": "2.21%"}, {"smiles": "COc1ccc(C)cc1NC(=O)CCN1CCN(c2ccccc2F)CC1", "inhibition": "active: 79.8%"}, {"smiles": "CCOC(=O)c1cccc(OCC(O)CNCCOc2ccccc2F)c1", "note": "(stereo unspecified)", "inhibition": "active: 82.6%"}, {"smiles": "Cc1ccc(Cn2c(=O)n(Cc3ccccc3)c(=O)c3c(C)c(C)sc32)cc1", "inhibition": "3.01%"}, {"smiles": "CCOC(=O)Cn1c(=O)n(C2CCCCC2)c2nc(-c3ccc(OC)cc3)nc(C(N)=O)c21", "inhibition": "14.9%"}, {"smiles": "COc1ccc(Cc2nc3ccc(C(=O)NCCc4ccc(OC)c(OC)c4)cc3o2)cc1", "inhibition": "10.7%"}, {"smiles": "Cc1cc(C)cc(NC(c2nnc(-c3cccc(F)c3)o2)c2ccc(F)cc2Cl)c1", "note": "(stereo unspecified)", "inhibition": "9.75%"}, {"smiles": "Cn1c(=O)n(C)c2cc(CNCc3ccccc3)ccc21", "inhibition": "5.38%"}, {"smiles": "COc1ccc(S(=O)(=O)N2CCN(c3ccccc3)CC2)cc1-c1noc(C)n1", "inhibition": "-12.4%"}, {"smiles": "O=C(Cn1c(=O)c(C(F)(F)F)nc2ccccc21)Nc1ccc(Br)cc1F", "inhibition": "-5.56%"}, {"smiles": "Cn1nc(-c2ccccc2F)c2cc(C(=O)Nc3cc(F)ccc3F)sc21", "inhibition": "12.5%"}, {"smiles": "O=C(c1cnc2c(c1)COc1ccccc1-2)c1ccccc1O", "inhibition": "-3.6%"}, {"smiles": "Cc1ccccc1Cn1cc(CCC(=O)NCc2cccc(Br)c2)c2ccccc21", "inhibition": "20.3%"}, {"smiles": "COc1ccc(S(=O)(=O)NCC(c2ccco2)N2CCN(c3ccc(F)cc3)CC2)cc1", "note": "(stereo unspecified)", "inhibition": "8.34%"}, {"smiles": "CC(C)(C)NC(=O)CSc1nc(-c2ccc(F)cc2)cc(C(F)(F)F)n1", "inhibition": "-7.28%"}, {"smiles": "O=C(Nc1cccc(C(F)(F)F)c1)C1CCN(S(=O)(=O)c2ccc(N3CCCC3=O)cc2)CC1", "inhibition": "active: 64.4%"}, {"smiles": "O=C(NCc1ccccc1)c1ccc2c(c1)N(Cc1ccccc1)C(=O)c1ccccc1S2(=O)=O", "inhibition": "14.4%"}, {"smiles": "CC(C)c1cnc2c(c1SCC(=O)c1ccccc1)c(=O)n(C)c(=O)n2C", "inhibition": "-2.95%"}, {"smiles": "CCCCOc1cccc(C(=O)N(Cc2ccc(Br)o2)C2CCS(=O)(=O)C2)c1", "note": "(stereo unspecified)", "inhibition": "0.384%"}, {"smiles": "Cc1cccc(C(=O)Nc2ccc(C(=O)OCc3cc(=O)n4c(C)csc4n3)cc2)c1", "inhibition": "4.12%"}, {"smiles": "NC(=O)CSc1oc(-c2cccs2)nc1S(=O)(=O)c1ccc(Br)cc1", "inhibition": "-6.75%"}, {"smiles": "Cc1cc(F)ccc1NC(=O)C1CCN(S(=O)(=O)c2ccc3c(c2)CCCC(=O)N3)CC1", "inhibition": "-6.78%"}, {"smiles": "O=C(Nc1cccc(Cl)c1)C1CCN(S(=O)(=O)Cc2ccccc2)CC1", "inhibition": "25.2%"}, {"smiles": "CC1=C(C(=O)NCc2ccc(Cl)cc2)C2(CCC(C)CC2)OC1=O", "note": "(stereo unspecified)", "inhibition": "1.33%"}, {"smiles": "NC1=NC(c2cc(F)cc(F)c2)n2c(nc3ccccc32)N1", "note": "(stereo unspecified)", "inhibition": "0.815%"}, {"smiles": "Cc1ccc(Cl)cc1NC(=O)CC1Sc2ccccc2NC1=O", "note": "(stereo unspecified)", "inhibition": "-1.46%"}, {"smiles": "Cc1ccc(CNC(=O)CCc2c(C)nc3c4c(C)cc(C)nc4nn3c2C)cc1", "inhibition": "-5.76%"}, {"smiles": "COc1cccc(NC(=O)N(Cc2cn(C)c3ccccc23)C2CCCCCC2)c1", "inhibition": "-1.86%"}, {"smiles": "CCN1CCN(c2cc(C)c3cc(NC(=O)/C=C/c4ccc(C)cc4)ccc3n2)CC1", "inhibition": "3.15%"}, {"smiles": "COc1ccc(C2CC(=O)Oc3ccc(C(C)(C)C)cc32)cc1", "note": "(stereo unspecified)", "inhibition": "active: 40.2%"}, {"smiles": "Cc1cccc(C(=O)Nc2ccc(N3CCC(N4CCCCC4)CC3)c(C(=O)O)c2)c1", "inhibition": "0.414%"}, {"smiles": "Cc1cccc(CN2CCN(CC(=O)Nc3c(C)cccc3C)S2(=O)=O)c1", "inhibition": "3.59%"}, {"smiles": "COc1cc(CNc2ccc3[nH]c(=O)[nH]c3c2)cc(Br)c1OCc1ccccc1F", "inhibition": "-3.42%"}, {"smiles": "Cc1ccc(C)n1-c1nnc(N2CCCC(C(=O)NCc3cccc(Br)c3)C2)s1", "note": "(stereo unspecified)", "inhibition": "-7.64%"}, {"smiles": "COCCNC(=O)CSc1nc(-c2ccccc2)[nH]c1-c1ccc(C)cc1", "inhibition": "12.1%"}, {"smiles": "CCCOc1ccc(CNC(=O)C2CCN(C(=O)c3sccc3-n3cccc3)CC2)cc1", "inhibition": "-8.45%"}, {"smiles": "CCCNC(=O)C1CCN(c2nc3ccc(C)cc3[nH]2)CC1", "inhibition": "-5.16%"}, {"smiles": "Cc1ccc(CNC(=O)CCCN2C(=O)CCn3nc(-c4cccn4C)cc32)cc1", "inhibition": "23.8%"}, {"smiles": "COc1ccc(-c2nc3ccccc3n3c(-c4ccc(OC)cc4)c4c(=O)n(C)c(=O)n(C)c4c23)cc1", "inhibition": "13.9%"}, {"smiles": "CCOC(=O)c1ccc2c(c1)N(Cc1ccc(F)cc1Cl)C(=O)c1ccccc1S2", "inhibition": "-13.1%"}, {"smiles": "Cc1cnc(=O)[nH]c1SCC(=O)Nc1cc(C(F)(F)F)ccc1Cl", "inhibition": "-22.8%"}, {"smiles": "Cc1c(Cl)cccc1-n1nc(C)c2c(C)cc(=O)n(CC(=O)N3CCCc4ccccc43)c21", "inhibition": "-18.4%"}, {"smiles": "O=C(CN1CCOCC1)Nc1scc2c1c(=O)oc1ccccc12", "inhibition": "active: 35.7%"}, {"smiles": "CCN(CC)CCOC(=O)c1ccc(NC(=O)c2cc3cc(OC)ccc3oc2=O)cc1", "inhibition": "5.42%"}, {"smiles": "COCCNC(=O)CN1C(=O)COc2ccc(S(=O)(=O)N3CCCC3)cc21", "inhibition": "26.4%"}, {"smiles": "CCc1ccc(NC(=O)Cn2c(=O)n(CCCC(=O)NCCc3ccc(OC)c(OC)c3)c(=O)c3ccccc32)cc1", "inhibition": "-5.1%"}, {"smiles": "Cc1nnc(SCC(=O)Nc2ccc(N(C)C)cc2)[nH]c1=O", "inhibition": "3.54%"}, {"smiles": "CCOC(=O)N1CCc2c(sc3c2C(=O)NC(c2ccc(C(=O)OC)cc2)N3)C1", "note": "(stereo unspecified)", "inhibition": "3.25%"}, {"smiles": "Cc1ccccc1NC(=O)CCn1nc(-c2ccccc2)c2ccccc2c1=O", "inhibition": "-10.1%"}, {"smiles": "CCOc1ccc(Sc2cc(C(=O)NCc3ccccc3Cl)c3ccccc3n2)cc1", "inhibition": "-0.835%"}, {"smiles": "Cc1ccc(CNS(=O)(=O)c2ccc3c(c2)CC(C)N3C(=O)C2CCC2)cc1", "note": "(stereo unspecified)", "inhibition": "7.55%"}, {"smiles": "COc1ccc(OC)c(C(=O)CN2C(=O)N(c3ccc(C)cc3)S(=O)(=O)c3ccccc32)c1", "inhibition": "5.97%"}, {"smiles": "COC(=O)c1c(-c2cccs2)csc1NC(=O)c1ccc(C)cc1", "inhibition": "15%"}, {"smiles": "O=C(Cn1c(-c2cccs2)cc2ccccc21)N1CCN(c2ccc(F)cc2)CC1", "inhibition": "-11.5%"}, {"smiles": "Cc1cc(NC(=O)c2cc(-c3ccc(Cl)c(Cl)c3)on2)n(-c2ccccc2)n1", "inhibition": "-24.6%"}, {"smiles": "CCOc1ccc(CNC(=O)C2CCN(C(=O)N3CC(CC)Oc4ccc(C)cc43)CC2)cc1OC", "note": "(stereo unspecified)", "inhibition": "-13.5%"}, {"smiles": "COc1ccccc1NC(=O)Cn1c(=O)n(CC2CCC(C(=O)NCCc3ccccc3)CC2)c(=O)c2ccccc21", "note": "(stereo unspecified)", "inhibition": "10.6%"}, {"smiles": "Cc1ccccc1N1CC(c2nc3ccccc3n2Cc2ccc(Br)cc2)CC1=O", "note": "(stereo unspecified)", "inhibition": "22.6%"}, {"smiles": "Cc1cc(Br)ccc1NC(=O)c1c(C)oc2ncnc(N3CCCCC3)c12", "inhibition": "-2.82%"}, {"smiles": "COc1ccc(CNC(=O)C(=O)Nc2cccc(C)c2C)cc1", "inhibition": "-0.282%"}, {"smiles": "COc1ccc2oc(-c3ccc(NC(=O)c4ccc(Cl)cc4Cl)cc3)nc2c1", "inhibition": "-5.6%"}, {"smiles": "Cc1ccc(-n2ncc3c(N4CCN(c5ccc(F)cc5)CC4)ncnc32)cc1", "inhibition": "-3%"}, {"smiles": "O=c1c(-c2cc(-c3ccccc3)nc3c2COc2ccccc2-3)coc2ccc(Cl)cc12", "inhibition": "-5.3%"}, {"smiles": "O=C(Nc1cc(Cl)ccc1Cl)c1cc(S(=O)(=O)N2CCc3ccccc3C2)ccc1F", "inhibition": "-3.32%"}, {"smiles": "CCc1ccc(NC(=O)C2CCCN(c3nnc(C)c4c(C)n(-c5ccccc5)nc34)C2)cc1", "note": "(stereo unspecified)", "inhibition": "-16.8%"}, {"smiles": "Cc1cccc(NC(=O)N2CCN3CCCCC3C2)c1C", "note": "(stereo unspecified)", "inhibition": "-2.51%"}, {"smiles": "COc1cc(NC(=O)CCS(=O)(=O)c2ccc3c(c2)n(C)c(=O)c(=O)n3C)cc(OC)c1", "inhibition": "17.1%"}, {"smiles": "Cc1cccc(C)c1Nc1c(-c2ccsc2)nc2cccc(C)n12", "inhibition": "-2.56%"}, {"smiles": "COc1ccccc1N1CCN(c2csc3ccccc3c2=O)CC1", "inhibition": "-18.1%"}, {"smiles": "COc1cccc(NC(=O)Cn2c(-c3nonc3N)nc3ccccc32)c1", "inhibition": "8.02%"}, {"smiles": "COc1ccccc1CNC(=O)CCCCn1c(=O)c2ccccc2n(CC(=O)Nc2cccc(Cl)c2)c1=O", "inhibition": "-0.956%"}, {"smiles": "CCOc1ccc(/C=C/c2nc(C#N)c(N3CCC(C)CC3)o2)cc1", "inhibition": "-17.2%"}, {"smiles": "COC(=O)c1cc2oc3ccccc3c2n1Cc1ccccc1Cl", "inhibition": "-3.25%"}, {"smiles": "CCc1ccc(Sc2cc(C(=O)NCCCN3CCC(C)CC3)c3ccccc3n2)cc1", "inhibition": "-14.6%"}, {"smiles": "COC(=O)c1c(-c2ccc(Cl)cc2)noc1N1CCN(c2ccc(F)cc2)CC1", "inhibition": "0.311%"}, {"smiles": "Cc1ccc(C(C)C)c(OCc2nc(-c3nonc3N)no2)c1", "inhibition": "active: 33%"}, {"smiles": "C/C(=C\\c1ccccc1)CN1CCN(c2ccccc2F)CC1", "inhibition": "active: 66.9%"}, {"smiles": "Cc1ccc(-c2nc(-c3cc4cccc(OCc5ccccc5F)c4oc3=O)no2)cc1", "inhibition": "-10.7%"}, {"smiles": "O=C(Cn1cc2c(n1)CCCC2)NCCCN1CCN(c2ccccc2F)CC1", "inhibition": "active: 76.2%"}, {"smiles": "Cc1ccc(NC(=O)Cn2c(=O)n(Cc3ccc(C(=O)NCc4ccc5c(c4)OCO5)cc3)c(=O)c3ccccc32)cc1", "inhibition": "-2.14%"}, {"smiles": "CCOc1ccc(CNC(=O)CCS(=O)(=O)c2ccc3c(c2)oc(=O)n3C)cc1", "inhibition": "-27.4%"}, {"smiles": "CC(C)c1cc(C(=O)NCc2ccccc2)no1", "inhibition": "-18.1%"}, {"smiles": "COc1ccc(NC(=O)Cn2nc(C(F)(F)F)c3c2CCCC3)cc1OC", "inhibition": "-4.71%"}, {"smiles": "COc1cccc(-c2nn3c(=O)cc(CN4CCN(C(=O)/C=C/c5ccccc5)CC4)nc3s2)c1", "inhibition": "27.1%"}, {"smiles": "Cc1cccc(N2CCN(C(=O)c3ccc4c(Cl)c5c(nc4c3)CCCC5)CC2)c1C", "inhibition": "-12.8%"}, {"smiles": "CCOc1ccccc1NC(=O)C1=C(C)Nc2ncnn2C1c1cccs1", "note": "(stereo unspecified)", "inhibition": "5.8%"}, {"smiles": "COc1cc(NC(=O)c2nc3ccccc3n(C)c2=O)cc(OC)c1OC", "inhibition": "8.89%"}]}]}
